According to PubChem BioAssay AID1476 (National Center for Advancing Translational Sciences (NCATS), 2009):
Screen size: about 200,000 compounds; about 4,500 (2.2%) were called active. The inconclusive results got no clear call from the source; some entries with a clear call stand among them for comparison. The call rests on the fitted dose curve; in most records, active means well fitted inhibition curve with a large enough effect; inconclusive means small, poorly fitted or top-dose-only effect, or effect the other way; inactive means flat fitted curve, though single readings scatter. Where the call is inconclusive, the potency comes from a doubtful curve fit.

target: Cruzipain (Trypanosoma cruzi) (UniProt P25779); assay: qHTS Assay for Promiscuous and Specific Inhibitors of Cruzain (without detergent); conditions: purified cruzain, Z-FR-AMC fluorescence, no detergent; further: nearly all actives have a fitted effect of over 40% in size;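 on max response, negative = inhibition: plate controls were enzyme without inhibitor for no effect and buffer without enzyme for full effect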
Sequence of UniProt P25779 (P25779 whole entry, looked up): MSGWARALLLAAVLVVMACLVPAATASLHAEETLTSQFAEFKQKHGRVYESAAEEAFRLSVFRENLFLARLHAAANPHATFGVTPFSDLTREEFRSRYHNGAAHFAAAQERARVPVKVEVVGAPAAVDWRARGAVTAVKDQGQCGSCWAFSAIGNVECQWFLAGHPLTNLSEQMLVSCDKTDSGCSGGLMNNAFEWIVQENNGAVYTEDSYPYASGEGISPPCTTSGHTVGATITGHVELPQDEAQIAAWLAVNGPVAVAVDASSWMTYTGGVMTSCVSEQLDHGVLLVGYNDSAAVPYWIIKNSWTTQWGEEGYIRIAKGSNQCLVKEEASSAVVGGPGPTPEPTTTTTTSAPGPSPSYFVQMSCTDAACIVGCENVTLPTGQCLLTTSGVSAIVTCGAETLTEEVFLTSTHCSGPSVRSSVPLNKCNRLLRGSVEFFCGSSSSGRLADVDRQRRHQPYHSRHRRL
Method in brief: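 Detergent-free condition (0.00005% Triton X-100) in acetate buffer pH 5.5 with DTT. 1.5 nM enzyme and compound were pre-mixed 15 min, then 2 uM Z-FR-AMC substrate added; reaction progress from fluorescence change between first and third reads (60 s).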
Potency means the concentration at half of the fitted maximal effect; tags describe the fitted curve by direction and shape.

| Structure (SMILES) | max response, negative = inhibition | Potency |
| --- | --- | --- |
| O=c1cc(CSc2nnnn2-c2ccccc2)nc2nc[nH]n12 | inactive: -3.11% | – |
| COc1ccc(OCC(=O)Nc2cc(-c3nc4ccccc4o3)ccc2Cl)cc1 | inactive: -5.34% | – |
| C=CCSc1nnc(-c2cc3c(-c4ccccc4)nn(C)c3s2)n1C | – | inconclusive: 39.8 µM [activator, single point] |
| Cc1ccc2c(c1)c1c(c(=O)n(-c3cccc(Cl)c3)c(=O)n1CC(N)=O)n2C | inactive: 17.3% | – |
| CCOc1ccc(NC(=O)Cn2nc(CC)n3c(cc4sccc43)c2=O)cc1 | inactive: 10.9% | – |
| Cc1ccc(-c2csc(NC(=O)CSc3nc4ccccc4o3)n2)cc1 | – | inconclusive: 31.6 µM [inhibitor, single point] |
| O=C(CSc1nc2ccccc2c(=O)n1-c1ccccc1)N1CCc2ccccc21 | – | inconclusive: 15.8 µM [inhibitor, partial curve] |
| N#CC(C#N)=NNc1cccc(Cl)c1 | – | active: 12.6 µM |
| COC(=O)c1ccccc1NC(=O)Cn1c(=O)n(-c2ccc(C)cc2)c(=O)c2ccccc21 | inactive: -11% | – |
| Oc1ccc(-c2nc3c4c(ncn3n2)-c2ccccc2CC42CCCC2)cc1 | – | inconclusive: 7.94 µM [activator, single point] |
| Cc1nc2nc(SCC(=O)c3ccc([N+](=O)[O-])cc3)[nH]c2cc1Br | – | inconclusive: 31.6 µM [inhibitor, single point] |
| Cc1ccc(S(=O)(=O)N2CCN(c3nc(C)nc4sc5c(c34)CCC(C)C5)CC2)cc1 (stereo unspecified) | – | inconclusive: 20 µM [inhibitor, partial curve] |
| CC(C)Cc1nnc(NC(=O)CCC(=O)Nc2ccc(F)cc2)s1 | – | inconclusive: 39.8 µM [inhibitor, single point] |
| Cc1cccc2cc(C(c3nnnn3C(C)(C)C)N(Cc3ccco3)CC3CCCO3)c(=O)[nH]c12 (stereo unspecified) | – | inconclusive: 39.8 µM [activator, single point] |
| CCCSCCCNC(=O)c1sc2nc(C)cc(C)c2c1-n1cccc1 | – | inconclusive: 39.8 µM [activator, single point] |
| CCCCCCNC(=O)CC(c1ccccc1)c1cc(Br)ccc1O (stereo unspecified) | inactive: -11.2% | – |
| Cc1ccc(-c2nc(CS(=O)(=O)CC(=O)N3CCN(c4ccccc4)CC3)c(C)o2)cc1 | – | inconclusive: 25.1 µM [activator, single point] |
| COc1ccc(CNC(=O)c2cc3c(=O)n(Cc4ccc(OC)cc4)ccc3nc2C)cc1 | – | inconclusive: 31.6 µM [activator, single point] |
| CCCCCCSc1nnc2[nH]c(=O)cc(N)n12 | – | inconclusive: 31.6 µM [inhibitor, single point] |
| O=S1(=O)c2ccccc2N(Cc2ccc(F)cc2)c2ccccc21 | – | inconclusive: 31.6 µM [inhibitor, single point] |
| CCn1cnc2scc(-c3ccccc3)c2c1=O | inactive: -11.2% | – |
| CC/C(=N/NC(=O)c1ccccc1)c1ccc(OCCN2CCOCC2)cc1 | inactive: 3.34% | – |

| Structure (SMILES) | max response, negative = inhibition | Potency |
| --- | --- | --- |
| CCc1nn(-c2ccccc2)c2c1-c1cc(OC)c(OC)cc1C1(N2)C(=O)Nc2ccccc21 (stereo unspecified) | – | inconclusive: 25.1 µM [activator, single point] |
| CCOC(=O)Cc1nnc(NC(=O)COc2ccc(C)cc2)s1 | – | inconclusive: 39.8 µM [inhibitor, single point] |
| COc1ccc(OCCOCCN2CCOCC2)cc1 | inactive: -9.95% | – |
| Cc1cc(C)c(C)c(S(=O)(=O)N2C(=S)NC(=O)C2CC(C)C)c1C (stereo unspecified) | – | inconclusive: 39.8 µM [activator, single point] |
| COc1ccc(CNC(=O)C(CC(C)C)NS(=O)(=O)c2ccc3c(c2)CCN3C(C)=O)cc1 (stereo unspecified) | inactive: 0.171% | – |
| COc1cc(/C=N/n2cnc3scc(-c4cccs4)c3c2=O)cc(OC)c1OC | – | inconclusive: 39.8 µM [activator, single point] |
| CCOc1ccc(NC(=O)c2ccc(CNc3c(NC4CCCCC4)c(=O)c3=O)cc2)cc1 | – | active: 3.98 µM |
| Cc1ccc(C(=O)/C=C\C(=O)c2ccc(C)cc2)cc1 | inactive: -21.1% | – |
| COc1ccccc1NC(=O)CSc1nnc(Cc2cccn2C)n1-c1ccc(F)cc1 | – | inconclusive: 39.8 µM [activator, single point] |
| CC(/C=N/N1CCN(c2ccccn2)CC1)=C\c1ccccc1 | – | inconclusive: 39.8 µM [inhibitor, single point] |
| COc1cc(/C=N/NC(N)=S)ccc1OCC(=O)Nc1ccc(C)c(C)c1 | – | active: 12.6 µM |
| c1ccc2c(c1)oc1c(Nc3ccc4c(c3)OCO4)ncnc12 | – | inconclusive: 39.8 µM [inhibitor, single point] |
| Cc1ccc(NC(=O)CSc2nc3n[nH]c(C)c3c(=N)n2-c2ccccc2C)cc1C | inactive: 8.05% | – |
| Cc1c(Cl)ccc2c1NC(=O)C21NC(CCC(N)=O)[C@H]2C(=O)N(c3ccc(Cl)cc3)C(=O)[C@H]21 (stereo partly specified) | – | inconclusive: 39.8 µM [activator, single point] |
| COc1ccccc1-c1nnc(-c2ccc(N3CCOCC3)cc2)o1 | – | inconclusive: 39.8 µM [activator, single point] |
| COc1ccccc1N1CCN(Cc2nc(-c3cc(OC)c(OC)c(OC)c3)no2)CC1 | – | inconclusive: 31.6 µM [activator, single point] |
| COC(=O)N1CCC2(CCCN(c3ccccn3)C2)CC1 | inactive: -0.286% | – |
| Cc1cc(C)[n+](-c2ccc(C(C)C)cc2)c2[nH]c(=O)[nH]c(=O)c12 | – | inconclusive: 39.8 µM [inhibitor, single point] |
| COc1ccccc1C1C(C(=O)Nc2ccccc2)=C(C)Nc2nc(-c3ccccc3)nn21 (stereo unspecified) | – | inconclusive: 39.8 µM [activator, single point] |
| O=C(OCC1CO1)C1CCCCC1C(=O)OCC1CO1 (stereo unspecified) | – | inconclusive: 39.8 µM [activator, single point] |
| N#Cc1cc(C(=O)c2ccccc2O)cn(-c2nccs2)c1=O | – | inconclusive: 39.8 µM [inhibitor, single point] |
| CNC(=O)c1cc2cc(OC)ccc2oc1=O | – | inconclusive: 0.0398 µM [inhibitor, full curve, poor fit] |

| Structure (SMILES) | max response, negative = inhibition | Potency |
| --- | --- | --- |
| Cc1ccc(C(C(=O)NCC2CCCO2)N(Cc2ccccc2)C(=O)c2ccc(-c3ccccc3)[nH]2)o1 (stereo unspecified) | – | inconclusive: 39.8 µM [activator, single point] |
| COC(=O)c1c(NC(=O)Cc2ccccc2)sc(C)c1C | inactive: -8.63% | – |
| COC(=O)[C@@]1(Cc2ccc(OC)cc2)[C@H]2c3cc(C(=O)N4CCCC4)n(CCc4c[nH]c5ccccc45)c3C[C@H]2CN1C(=O)c1ccccc1 | – | inconclusive: 31.6 µM [activator, single point] |
| CC1CN(C(=O)N2CCC(C(=O)NCc3ccco3)CC2)c2ccccc2O1 (stereo unspecified) | – | inconclusive: 39.8 µM [activator, single point] |
| Cc1ccc2c(c1)-c1c(ssc1=S)C(C)(C)N2C(=O)CN1C(=O)c2ccccc2C1=O | – | inconclusive: 39.8 µM [inhibitor, single point] |
| CCOC(=O)CNC(=O)O[C@@H]1C(=O)c2cc(OC)ccc2O[C@H]1c1ccc(OC)c(Br)c1 | inactive: -1.69% | – |
| Cc1ccc(Cl)cc1N1CCN(C(=O)c2cccn2-c2nnc(N3CCCC3)s2)CC1 | inactive: 11.3% | – |
| Cc1ccc2c(=O)c(C(=O)c3ccc(F)cc3)cn(CC(=O)NCc3ccccc3Cl)c2n1 | inactive: 6.62% | – |
| COc1ccc(-c2nc(C#N)c(NCc3ccc(C)cc3)o2)cc1OC | – | inconclusive: 31.6 µM [activator, single point] |
| CC1=C(C(N)=O)C(c2ccc(F)cc2)n2nc(-c3ccc(N(C)C)cc3)nc2N1 (stereo unspecified) | inactive: 14.2% | – |
| COc1ccc(/C=C(\C#N)C(=O)Nc2cc(S(=O)(=O)N3CCOCC3)ccc2N2CCCC2)cc1 | – | inconclusive: 39.8 µM [activator, single point] |
| CCN(C(=O)c1cc(S(=O)(=O)N2CCc3ccccc32)cn1C)c1cccc(C)c1 | inactive: -6.39% | – |
| COc1cc(-c2nnn(CC(=O)NC3CCS(=O)(=O)C3)n2)ccc1OCc1ccccc1 (stereo unspecified) | – | inconclusive: 31.6 µM [activator, single point] |
| COc1cc(NC(=O)NCCn2nnc3cc(S(=O)(=O)N(C)C)ccc32)cc(OC)c1 | inactive: 6.46% | – |
| Cc1nn(-c2ccccc2)c(N2CCCC2)c1/C=N/NC(=O)c1cc(-c2cccs2)nc2ccccc12 | – | active: 10 µM |
| CC(C)(C)OC(=O)N1CCC(c2c(C(=O)NCc3ccc4c(c3)OCO4)cnn2-c2ccccc2Cl)CC1 | inactive: 6.66% | – |
| CCCc1cc(C(=O)OC)c(NC(=O)c2cc(C)on2)s1 | – | inconclusive: 1.58 µM [inhibitor, single point] |
| O=C(Nc1ccc(OC(=O)c2cccs2)cc1)c1ccco1 | – | inconclusive: 1.58 µM [inhibitor, full curve, poor fit] |
| CCOc1ccccc1/C=N/NC(=O)c1cccc(Cl)c1 | – | inconclusive: 31.6 µM [inhibitor, single point] |
| COc1ccc(S(=O)(=O)CCC(=O)Nc2c(C)n(C)n(-c3ccccc3)c2=O)cc1 | – | inconclusive: 39.8 µM [inhibitor, single point] |
| CC1(C)Cc2c(c(-c3ccco3)nc3sc4c(NCCN5CCOCC5)ncnc4c23)CO1 | – | inconclusive: 31.6 µM [activator, single point] |
| CCCc1cc(C(=O)Nc2cc(Br)ccc2O)no1 | – | inconclusive: 39.8 µM [inhibitor, single point] |
